The values that follow come from patent US11904004B2, “Anti-CD277 antibodies” (INSTITUT NATIONAL DE LA SANTE ET DE LA RECHERCHE MEDICALE …, priority 2010, dated 2024).

The test relates to primary AML blasts. Put plainly: Chromium release assay, lysis of primary AML blasts by Vγ9Vδ2 T cells. The format is cell-based, human. The following applies: blocking/antagonist mAb added; E:T 30:1. As for the experimental part: Effector γδ T cells were established and maintained as previously described^28. PBMC from HV were stimulated with ZOL (1 μm) and rhlL-2 (200 IU/ml) at Day 0. From Day 5, rhIL-2 was renewed every two days and cells were kept at 1.5×10^6/m1 for 15 days. NK cells were isolated using EASYSEP® Human NK cell enrichment kit (StemCell Technologies). The purity of γδ T cells and NK cells was determined by flow cytometry and respectively greater than 80% and 98%. The Burkitt lymphoma cell line, DAUDI, the human AML cell line, U937, and the erythroleukemic cell line, K562, were obtained from the American Type Culture Collection and cultured (0.5×10^6/ml) in RPMI 1640 medium with 10% FCS. […]
0.5×10^6 target cells were incubated with 50 pCi of ^51Cr (Perkin-Elmer) for AML blasts and 10 pCi for DAUDI and K562 cells for 90 minutes and mixed with effector cells in a Effector:Target (E:T) ratio of […]. After 4 hours of incubation at 37° C., 50p1 supernatant of each sample was transferred in LUMA® plates and radioactivity was determined by a gamma counter. The percentage of specific lysis was calculated using the formula [(experimental−spontaneous release/total−spontaneous release)×100] and expressed as the mean of triplicate.

B1: mAb 108.5: anti-CD277 (anti-BTN3A) antagonist antibody, VH SEQ ID NO:58, VL SEQ ID NO:60 (antibody, listed as Mus musculus, V domains shown)
VH: EVQLQQSGPELVKPGASMKISCKASGYSFTGFAINWVKQSHGQNLEWIGLIYPYNGGTTYSQRFKGKATLTVDKSSTTAYMELLSLTSEDSAVYYCARRRDGYSWFAYWGQGTLVTVSA
VL: DIVLTQSPASLAVSLGQRATISCRASESVENYGIIFMNWFQQKPGQPPKLLIFSASNQGSGVPARFNGSGSGTDFSLNIHPMEEDDTAMYFCQQSKEAPFTFGGGTKLEIK
Regarding B1, the “ZOL-induced lysis of AML blasts by Vγ9Vδ2 T cells” value is “significantly and drastically abrogate”.
